Laboratory results from the supplement of paper PMC9588766.
Where “and” joins values, the source holds several entries; their conditions need not be identical. Equal values may be shown once. Where a name gives a salt, the structure may show the parent alone. ± gives the standard deviation of the averaged measurements. In all, about 2,000 compounds were measured (“cell viability relative to DMSO control (compound alone)”: median about 0.98, lowest 2% from about 0.23 on). The list shows a part of the results.

These compounds were tested on PDC-DUC18828 (assay: cell viability relative to DMSO control (compound alone) (fraction); PDC-DUC18828 is a patient-derived cholangiocarcinoma cell line; higher = less growth inhibition). Details: 1 µM; 72 h.
Description: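 Selleck Bioactive library screen in the patient-derived FGFR2-G3BP2 fusion-positive ICC cell line PDC-DUC18828 (500 cells/well). Each compound was tested at 1 uM alone, in triplicate, for 72 h. Viability was read by CellTiter-Glo and normalised to plate DMSO controls.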
For `CN(C)CCC(c1ccc(Br)cc1)c1ccccn1` (centres undefined) [Brompheniramine hydrogen maleate], the cell viability was 0.949 ± 0.015. `C=CC(=O)Nc1cccc(Oc2nc(Nc3ccc(N4CCN(C)CC4)cc3)ncc2Cl)c1` was tested, and the cell viability was 0.652 ± 0.02. Compound `C[C@@](Cc1ccc(O)c(O)c1)(NN)C(=O)O` [Carbidopa] has a cell viability of 0.96 ± 0.035. In the case of `CCOc1nc2cccc(C(=O)O)c2n1Cc1ccc(-c2ccccc2-c2nnn[nH]2)cc1` [Candesartan], the cell viability is reported as 1.07 ± 0.023. Compound `Nc1ncnc2c1ncn2[C@@H]1O[C@H](CO)[C@@H](O)[C@@H]1O` [Vidarabine] has a cell viability of 0.95 ± 0.042. For `CC1CCN(CC[C@H]2CCCN2S(=O)(=O)c2cccc(O)c2)CC1`, the cell viability was 1.01 ± 0.027. Work on `O=C(NC(Cc1cc(=O)[nH]c2ccccc12)C(=O)O)c1ccc(Cl)cc1` (centres undefined) [Rebamipide] yielded a cell viability of 0.993 ± 0.04. `COc1ccc2[nH]cc(/C=C3\C(=O)Nc4ccc(NC(=O)CCN5CCCCC5)cc43)c2c1` showed a cell viability of 0.997 ± 0.026. `COC(=O)/C=C/C(=O)OC` [Dimethyl Fumarate] gave a cell viability of 0.91 ± 0.024. With `CC(C)c1cc(C(C)C)c(CC(=O)NS(=O)(=O)Oc2c(C(C)C)cccc2C(C)C)c(C(C)C)c1` [Avasimibe] the cell viability was 0.899 ± 0.015. `O=C(NNc1nc2cc(F)ccc2n2cccc12)c1cnccn1` showed a cell viability of 0.101 ± 0.012. `CN1CCN(Cc2ccc(-c3cnc4[nH]cc(-c5ccc6[nH]ccc6c5)c4c3)cc2)CC1` showed a cell viability of 0.97 ± 0.046. With `CCOC(=O)C1=C(C)NC(C)=C(C(=O)OC)C1c1cccc(Cl)c1Cl` (centres undefined) [Felodipine] the cell viability was 1.026 ± 0.0077. With `CCOC(=O)c1ccc(NC2CCCCC2)c(N)c1` [Ferrostatin-1 (Fer-1)] the cell viability was 0.98 ± 0.03. `O=C1c2c(O)ccc(O)c2C(=O)c2c(NCCNCCO)ccc(NCCNCCO)c21` [Mitoxantrone HCl] showed a cell viability of 0.173 ± 0.018. `O=C1c2c(O)ccc(O)c2C(=O)c2c(NCCNCCO)ccc(NCCNCCO)c21` [Mitoxantrone] was tested, and the cell viability was 0.243 ± 0.015. Compound `CC1(C)CC[C@]2(NC(=O)C(C)(F)F)CC[C@]3(C)[C@H](C(=O)C=C4[C@@]5(C)C=C(C#N)C(=O)C(C)(C)[C@@H]5CC[C@]43C)[C@@H]2C1` [Omaveloxolone (RTA-408)] has a cell viability of 0.0541 ± 0.0029. `CCCCc1ncc(/C=C(\Cc2cccs2)C(=O)O)n1Cc1ccc(C(=O)O)cc1` [Eprosartan Mesylate] showed a cell viability of 0.95 ± 0.024. Work on `CN1CCCN(C(=O)c2cccc(-c3ccc(/C=C4/C(=O)Nc5ccc(Cl)cc54)o3)c2)CC1` yielded a cell viability of 0.572 ± 0.016. `CCCCCCCCOc1ccccc1C(=O)Nc1ccc(C(=O)OCC[N+](C)(CC)CC)cc1` [Otilonium Bromide] showed a cell viability of 0.901 ± 0.043. In the case of `CN1CCN2c3ccccc3Cc3ccccc3C2C1` (centres undefined) [Mianserin HCl], the cell viability is reported as 0.99 ± 0.02. With `CN(c1ncccc1CNc1nc(Nc2ccc3c(c2)CC(=O)N3)ncc1C(F)(F)F)S(C)(=O)=O` the cell viability was 1.03 and 0.937 and 0.975. `CCc1ccc(OCc2ccccc2C(=O)Nc2ccc3nc(C)cc(N)c3c2)cc1` was tested, and the cell viability was 0.906 ± 0.049. Work on `Cn1nc(C(C)(C)C)cc1C(=O)N[C@@H](Cc1cccc(Cl)c1)C(=O)NCC#N` [Cathepsin Inhibitor 1] yielded a cell viability of 0.991 ± 0.024. `CN(C)CCc1c[nH]c2ccc(CS(=O)(=O)N3CCCC3)cc12` [Almotriptan Malate] showed a cell viability of 1 ± 0.021. `O=C(Nc1ccccc1)N1CCN(c2nc(-c3ccccc3)ns2)CC1` showed a cell viability of 1.06 ± 0.021. With `Clc1cccc(CN=C2Nc3ccccc3NC23CCNCC3)c1` [Liproxstatin-1] the cell viability was 0.963 ± 0.033. Compound `CC(CNC(=O)c1cccnc1)NC(=O)c1cccnc1` (centres undefined) [Nicaraven] has a cell viability of 0.935 ± 0.053. For `Cc1cnc(NC(=O)Nc2cc(Br)c(C)cc2OC[C@@H]2CNCCO2)cn1`, the cell viability was 0.989 ± 0.048. Compound `Cc1ccc(Sc2cncc3sc(C(N)=O)cc23)cc1` has a cell viability of 0.835 ± 0.018. Compound `Nc1cc(C(F)(F)F)c(-c2cc(N3CCOCC3)nc(N3CCOCC3)n2)cn1` [BKM120 (NVP-BKM120, Buparlisib)] has a cell viability of 0.676 ± 0.04. Work on `Cc1c(C(=O)Nc2ccc(N3C[C@@H](C)O[C@@H](C)C3)nc2)cccc1-c1ccc(OC(F)(F)F)cc1` [LDE225 (NVP-LDE225,Erismodegib)] yielded a cell viability of 1.13 ± 0.15. `COc1cccc(-c2cc(F)ccc2C2Cc3nc(N)nc(C)c3C(=O)N2)n1` (centres undefined) was tested, and the cell viability was 0.356 ± 0.016. `O=c1cc(N2CCOCC2)oc2c(-c3ccccc3)cccc12` showed a cell viability of 0.979 ± 0.066. For `CCc1ccc(/C=C2/SC(=S)NC2=O)cc1`, the cell viability was 1.03 ± 0.074. For `Cc1ccc(Nc2nccc(N(C)c3ccc4c(C)n(C)nc4c3)n2)cc1S(N)(=O)=O` [Pazopanib], the cell viability was 0.842 ± 0.017. `COc1cc(Nc2ncc3c(n2)-c2ccc(Cl)cc2C(c2c(F)cccc2OC)=NC3)ccc1C(=O)O` [Alisertib (MLN8237)] gave a cell viability of 0.58 ± 0.037. In the case of `CCCCC(=O)N(Cc1ccc(-c2ccccc2-c2nnn[nH]2)cc1)[C@H](C(=O)O)C(C)C` [Valsartan], the cell viability is reported as 0.934 ± 0.022. In the case of `OCC(CO)N[C@H]1C[C@](O)(CO)[C@@H](O)[C@H](O)[C@H]1O` [Voglibose], the cell viability is reported as 0.981 ± 0.017. `Nc1ccc(/N=N/c2ccccc2)c(N)n1` [Phenazopyridine HCl] showed a cell viability of 1.01 ± 0.038. `CCC(=O)O[C@]1(C(=O)SCF)[C@H](C)C[C@H]2[C@@H]3C[C@H](F)C4=CC(=O)C=C[C@]4(C)[C@@]3(F)[C@@H](O)C[C@@]21C` [Fluticasone propionate] showed a cell viability of 0.938 ± 0.046. Compound `Cc1[nH]nc2ccc(-c3cncc(OC[C@@H](N)Cc4ccccc4)c3)cc12` has a cell viability of 0.89 ± 0.041. For `CC(C)[C@H](O)C(=O)N[C@@H](C)C(=O)N[C@@H]1C(=O)N(C)CCc2ccccc21`, the cell viability was 1.02 ± 0.032. Compound `CCCCN1CCCC[C@H]1C(=O)Nc1c(C)cccc1C` [Levobupivacaine HCl] has a cell viability of 1.03 ± 0.031. `CCCc1cc2c(N3CCN(C4=NCC(C)(C)S4)CC3)ncnc2s1` [MI-2 (Menin-MLL Inhibitor)] gave a cell viability of 0.905 ± 0.029. With `CNCc1ccc(C)c(NC(=O)c2ccc(Nc3nc(-c4ccccc4)c4ccccc4n3)cc2)c1` the cell viability was 0.891 ± 0.043. In the case of `COc1cc(CCc2cc(NC(=O)c3ccc(N4CC(C)NC(C)C4)cc3)n[nH]2)cc(OC)c1` (centres undefined), the cell viability is reported as 0.798 ± 0.037. Compound `Nc1ccc(C(=O)O)c(O)c1` [Sodium 4-Aminosalicylate] has a cell viability of 0.991 ± 0.068. `O=C(O)c1ccccc1Nc1cccc(C(F)(F)F)c1` [Flufenamic acid] showed a cell viability of 1.003 ± 0.0069. `Cc1cccc(C)c1OCC(=O)N[C@@H](Cc1ccccc1)[C@@H](O)C[C@H](Cc1ccccc1)NC(=O)[C@H](C(C)C)N1CCCNC1=O` [Lopinavir] was tested, and the cell viability was 1.05 ± 0.012. With `Clc1ccc(C(c2ccccc2Cl)C(Cl)Cl)cc1` (centres undefined) [Mitotane] the cell viability was 0.972 ± 0.044. In the case of `O=C1O[C@H]([C@@H](O)CO)C(O)=C1O` [Vitamin C], the cell viability is reported as 0.95 ± 0.025. `N#CC[C@H](C1CCCC1)n1cc(-c2ncnc3[nH]ccc23)cn1` gave a cell viability of 0.953 ± 0.024. Work on `CN(C[C@@H]1COCCO1)S(=O)(=O)Nc1ccc2ccc3ncc(-c4cnn(C)c4)cc3c(=O)c2c1` yielded a cell viability of 0.752 ± 0.024. `CCCc1nn(C)c2c(=O)[nH]c(-c3cc(S(=O)(=O)N4CCN(C)CC4)ccc3OCC)nc12` [Sildenafil Citrate] was tested, and the cell viability was 1.05 ± 0.014. `CCC(C)(C)C(=O)O[C@H]1C[C@@H](C)C=C2C=C[C@H](C)[C@H](CC[C@@H]3C[C@@H](O)CC(=O)O3)[C@H]21` [Simvastatin] was tested, and the cell viability was 0.798 ± 0.065. `O=C(CSc1nc2c(c(=O)n1-c1ccccc1)SCC2)Nc1ccc(-c2ccccc2)cn1` gave a cell viability of 1.04 ± 0.027. Compound `CC(=O)Oc1ccc(C(c2ccc(OC(C)=O)cc2)c2ccccn2)cc1` [Bisacodyl] has a cell viability of 1.05 ± 0.085. `CCOC(=O)CC(=O)N1CCSC1COc1ccccc1OC` (centres undefined) [Moguisteine] gave a cell viability of 0.994 ± 0.017. Compound `CC(C)c1cnn2c(NCc3ccccc3)cc(NCCCCCCN)nc12` has a cell viability of 0.985 ± 0.045. Compound `O=C(c1ccc(F)c(F)c1Nc1ccc(I)cc1F)N1CC(O)([C@@H]2CCCCN2)C1` [Cobimetinib (GDC-0973, RG7420)] has a cell viability of 0.687 ± 0.017. `O=S(=O)(c1cccc2cnccc12)N1CCCNCC1` [Fasudil (HA-1077) HCl] gave a cell viability of 1.064 ± 0.0079. With `COc1cc2nc(N3CCCN(C)CC3)nc(NC3CCN(Cc4ccccc4)CC3)c2cc1OC` the cell viability was 1.006 ± 0.0086. Compound `Cc1c(C(=O)N2CCOc3ccc(-c4ccc(N)nc4)cc3C2)ccc(S(C)(=O)=O)c1F` has a cell viability of 0.756 ± 0.069. In the case of `C[C@H](Nc1ncnc2nc[nH]c12)c1cc2cccc(Cl)c2c(=O)n1-c1ccccc1`, the cell viability is reported as 0.869 ± 0.019. `CC(C)(O)CC(=O)NCCn1ccc2ncnc(Nc3ccc(Oc4cccc(C(F)(F)F)c4)c(Cl)c3)c21` gave a cell viability of 1.02 ± 0.034. `CC(NCCc1ccc(O)cc1)C(O)c1ccc(O)cc1` (centres undefined) [Ritodrine HCl] was tested, and the cell viability was 0.964 ± 0.038. For `CN1CCN(C(=O)c2cc3cc(Cl)ccc3[nH]2)CC1`, the cell viability was 0.8855 ± 0.0061. For `CC(=O)OCC(=O)[C@@]1(O)CC[C@H]2[C@@H]3CCC4=CC(=O)C=C[C@]4(C)[C@H]3[C@@H](O)C[C@@]21C` [Prednisolone Acetate], the cell viability was 0.909 ± 0.044. For `COc1ccc(CNc2nc(N3CCC[C@H]3CO)ncc2C(=O)NCc2ncccn2)cc1Cl` [Avanafil], the cell viability was 0.976 ± 0.046. In the case of `COC(=O)N[C@H](C(=O)N1CC2(CC2)C[C@H]1c1nc(-c2ccc3c(c2)C(F)(F)c2cc(-c4ccc5[nH]c([C@@H]6[C@H]7CC[C@H](C7)N6C(=O)[C@@H](NC(=O)OC)C(C)C)nc5c4)ccc2-3)c[nH]1)C(C)C` [Ledipasvir (GS5885)], the cell viability is reported as 0.87 ± 0.044. `CC[C@H](c1ccc(O)cc1)[C@@H](CC)c1ccc(O)cc1` [Hexestrol] showed a cell viability of 0.95 ± 0.018. In the case of `Cc1c(Nc2ncccc2C(=O)O)cccc1C(F)(F)F` [Flunixin Meglumin], the cell viability is reported as 1.06 ± 0.076. `N#CC1(c2ccc(NC(=O)c3cccnc3NCc3ccncc3)cc2)CCCC1` [Apatinib] gave a cell viability of 1.051 ± 0.0082. `OC[C@@H](O)CN1CCN(c2ccccc2)CC1` [Levodropropizine] gave a cell viability of 1.06 ± 0.082. In the case of `CC(ONC(=O)c1cc(C(F)(F)F)cc(C(F)(F)F)c1)C(=O)Nc1ccc(Cl)cc1` (centres undefined), the cell viability is reported as 0.949 ± 0.032. For `NCCc1ccc(O)c(O)c1` [Dopamine HCl], the cell viability was 0.513 ± 0.048. `Nc1nc(N)c2nc(-c3cccc(O)c3)c(-c3cccc(O)c3)nc2n1` showed a cell viability of 1.05 ± 0.071. With `Cn1cnc2c(F)c(Nc3ccc(Br)cc3Cl)c(C(=O)NOCCO)cc21` [Selumetinib (AZD6244)] the cell viability was 0.927 ± 0.054.
